Experimental data from paper PMC12040169 (PLOS Biology, 2025).
The list shows a part of the results.

These compounds were tested on T1, C. trachomatis L2/434/Bu expressing GFP (CTL2-GFP). Details: total inclusion area; 28.5 h, 10 µM; inhibitor.
T1 construct: L2/434/Bu GFP intracellular growth in HeLa cells
Set-up: species or system HeLa; C. trachomatis total inclusion area by high-content imaging, normalised to DMSO
In short: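 Bulk GFP and resorufin signals were read first. Wells were then fixed, stained with Hoechst and imaged to detect GFP inclusions and host nuclei. MICs followed the previously described calculation.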

| Structure (SMILES) | % of control remaining |
| --- | --- |
| COc1cccc(Oc2cnc(-c3ccc(C(=O)N(C)C)cc3)c(N)n2)c1 [CBK145185] | 97.0097 |
| O=C(CCN1CCN2CCCCC2C1)N1c2ccccc2Sc2ccc(Cl)cc21 (stereo not drawn) [CBK278257F] | 47.3028 |
| CS(=O)(=O)Nc1cccc(-c2cnc3[nH]c(=O)n(Cc4ccc(S(C)(=O)=O)cc4)c3n2)c1 [CBK065061] | 106.784 |
| Cc1cc(C(=O)NCc2c(-c3ccccc3)noc2C)n[nH]1 [CBK144076] | 92.6387 |
| CCOc1ccc(NC(=O)NC(=O)C2CCN(C(C)=O)CC2)cc1 [CBK034852] | 95.7816 |
| Cc1cn(C2CC(O)C(CNC(=O)C(F)(F)F)O2)c(=O)[nH]c1=O (stereo not drawn) [CBK201200] | 138.566 |
| CSc1nc(N)c2c3c(sc2n1)CN(C)CC3 [CBK018303] | 101.746 |
| CN(C)c1nc(N2CCOCC2)c(C#N)c(=O)o1 [CBK007447] | 46.578 |
| CC(C)[C@H](CO)Nc1nc(-c2cccc3ccccc23)cnc1N [CBK063701] | 86.3538 |
| O=C1CCCC[C@@H]2[C@@H](N1)[C@H](c1ccccc1)CN2Cc1ccnc2ccccc12 [CBK286280] | 78.6204 |
| CCCc1nn(CC(=O)NC(C)(C)C)c(=O)c2cc3ccsc3n12 [CBK284148] | 84.7523 |
| c1ccc2c(c1)CCN(Cc1nc3ccccc3[nH]1)C2 [CBK126396] | 103.207 |
| COc1ccc(OCC(F)(F)F)c(C(=O)N2CCSCC2)c1 [CBK005950] | 70.2818 |
| Nc1nc(SCC(=O)c2ccc3c(c2)OCCO3)n[nH]1 [CBK266554] | 92.314 |
| Cc1nc(S(=O)(=O)N2CCC3(CCCCC3)C2)cn1C [CBK306306] | 94.6215 |
| CCOC(=O)CCc1nc2ccccc2nc1O [CBK264526] | 116.234 |
| CCNC(=O)N[C@H]1CC[C@]2(C)CCC([C@H](C)C(=O)N3CCCCC3)[C@H](O)[C@H]2[C@@H]1C (stereo partly drawn) [CBK289455] | 112.909 |
| CCCc1nnc(SCC(=O)Nc2ccc(CN3CCOCC3)cc2)[nH]1 [CBK305583] | 105.863 |
| CCOc1cc(NC2CCN(C(=O)Cc3ccncc3)CC2)ncn1 [CBK304752] | 67.8828 |
| CN1CCN(c2ccc(-c3cnc(N)c(NC4CCOCC4)n3)cc2)CC1 [CBK064114] | 91.7513 |
| CCOc1cc(/C=C(/C#N)C(N)=S)ccc1OCC(=O)N1CCCC1 [CBK268765] | 112.245 |

| Structure (SMILES) | % of control remaining |
| --- | --- |
| O=C1CC(c2ccco2)Cc2c1cnn2-c1ccccc1 (stereo not drawn) [CBK287860] | 77.7743 |
| Cc1cc(C)c2nc(O)nc(O)c2c1 [CBK017986] | 84.6457 |
| CCN(CC)C(=O)c1ccccc1NS(=O)(=O)c1ccc(C)cc1 [CBK045416] | 100.212 |
| CCc1cc(Br)ccc1S(=O)(=O)NCCOc1ccccc1 [CBK044882] | 84.5232 |
| Cc1cccn2c(CN3CCCC(O)C3)c(C(=O)N3CCOCC3)nc12 (stereo not drawn) [CBK306545] | 85.92 |
| O=C(O)c1ccc(N2C(=O)C3C4C=CC(C4=C(c4ccccc4)c4ccccc4)C3C2=O)cc1 (stereo not drawn) [CBK263030] | 101.901 |
| CS(=O)(=O)Nc1nnc(C2CCCCC2)s1 [CBK069540] | 81.5681 |
| COc1ccc(CCc2nc(C)cc(CN(C)C)c2O)cc1OC [CBK278320C] | 86.6542 |
| COc1cccc2c(C(C(=O)O)N3CCN(c4ccc(C(F)(F)F)cn4)CC3)c[nH]c12 (stereo not drawn) [CBK286857] | 132.643 |
| Cc1nn(C)cc1-c1cncn1CCN(C)C1CCCC1 [CBK281780] | 105.931 |
| Cc1cccc(N2C(=O)SC(N(CC(=O)O)c3cccc(C)c3)C2=O)c1 (stereo not drawn) [CBK287095] | 101.82 |
| O=C(NCc1cccc2ccccc12)c1ccccc1-n1cccc1 [CBK149585] | 66.5706 |
| Cc1ccc(-c2nc3ccccc3[nH]2)cc1 [CBK085933] | 24.3352 |
| CCn1nc2c(C)cc3ccc(OC)cc3n2c1=O [CBK283796] | 90.6258 |
| COCCNC(=O)c1cc2n(n1)C(C(F)(F)F)CC(c1cccs1)N2 (stereo not drawn) [CBK307614] | 71.1994 |
| O=C1CNC(=S)N1c1cccc(C(F)(F)F)c1 [CBK288398] | 60.242 |
| COc1ccccc1C1CCC(NCCCC(=O)c2ccc(F)cc2)CC1 (stereo not drawn) [CBK015965C] | 43.4447 |
| CCN(CC)C(=O)c1ccc(N)cc1C [CBK022686C] | 56.3109 |
| Cc1ccc(C(=O)NCc2ccc(-c3n[nH]cc3C(=O)N(C)c3ccccc3)cc2)cc1 [CBK285600] | 96.571 |
| COc1ccc(-n2c(=O)[nH]cc(C(=O)N3CCc4ccccc43)c2=O)cc1OC [CBK287555] | 110.879 |
| CC1CCN(C(=O)CSc2ccc3nnc(-c4ccccc4)n3n2)CC1 [CBK287512] | 84.3389 |

| Structure (SMILES) | % of control remaining |
| --- | --- |
| CC(C)C(=O)N1CC2(CCN(CC3COc4ccccc4O3)CC2)c2ccccc21 (stereo not drawn) [CBK143946] | 85.5719 |
| O=C(CSCc1ccc(Cl)cc1Cl)Nc1ccc(O)cc1C(=O)O [CBK275322] | 95.292 |
| Cn1nccc1NS(=O)(=O)c1ccc(F)cc1 [CBK050484] | 85.1778 |
| CN1CCN(c2ccc(NC(=O)c3cccc(-c4cc5ccccc5oc4=O)c3)cc2Cl)CC1 [CBK269689] | 107.149 |
| CC(C)CNc1nccnc1-c1cccc(C=O)c1 [CBK088744] | 153.438 |
| CC1=C[C@@H](CNC(=O)c2ccccc2)[C@H](C(C)C)C[C@H]1CC(=O)O [CBK289213] | 116.681 |
| O=C(Nc1cccc(CCc2ccncc2)c1)C1CC(=O)N(Cc2ccncc2)C1 (stereo not drawn) [CBK286287] | 105.063 |
| CC(=O)c1ccc2c3c(cccc13)CC(N(C)C)C2 (stereo not drawn) [CBK005691S] | 15.1779 |
| CCC(=O)c1cccc2c1NC=C1C(=O)CC(C)(C)CC1=N2 [CBK265821] | 119.162 |
| COc1cc(NS(=O)(=O)c2ccc(NC(=O)c3cccnc3)cc2)ncn1 [CBK268156] | 69.9847 |
| CN1CCCN(c2cncc(-c3ccc(F)c(Cl)c3)n2)CC1 [CBK065297] | 104.469 |
| O=C(CSCc1ccc(Cl)cc1Cl)Nc1c[nH]c(=O)[nH]c1=O [CBK126912] | 79.5377 |
| CC(C)(C)c1ccc(C(=O)N2CCN(C(=O)CN3CCOCC3)C2)cc1 [CBK051554C] | 56.4422 |
| COc1ccc(NC2=NC(=O)CC(C(=O)Nc3ccc(C)c(C)c3)N2)cc1 (stereo not drawn) [CBK269359] | 92.0372 |
| CN1C[C@@H](NC(=O)Nc2ccccc2)C[C@H]1c1nc(-c2cccnc2)no1 [CBK288858] | 105.684 |
| CC(=O)c1sccc1NS(=O)(=O)c1ccc2ccccc2c1 [CBK200042] | 80.2744 |
| COc1ccc2[nH]c3c(c2c1)CCNC31CCN(CC(=O)C(C)(C)C)CC1 [CBK039471] | 134.006 |
| Cc1cccc(-c2csc3c(=O)[nH]c(N4CCC(C(=O)NCc5cccnc5)CC4)nc23)c1 [CBK215624] | 94.5128 |
| CC(C)(C)C(=O)CSc1nnc(-c2ccccn2)s1 [CBK006894] | 73.0926 |
| CCn1cc(S(=O)(=O)N2CCC3(CC2)OCCO3)cn1 [CBK270321] | 92.9348 |
| CNCc1cn(C[C@H]2CC3CCN2C[C@@H]3C(=O)N2CCCC2)nn1 (stereo partly drawn) [CBK289087] | 88.6063 |

| Structure (SMILES) | % of control remaining |
| --- | --- |
| COc1ccccc1-c1c(O)n[nH]c1C(C)C [CBK075133] | 74.4314 |
| CCN(CC)CCN1CCN(c2cc(-c3cc(C(F)(F)F)cc(C(F)(F)F)c3)ncn2)CC1 [CBK091195] | 121.846 |
| O=C(Nc1ccccc1N1CCOCC1)c1ccc(OCc2ccccc2)cc1 [CBK265992] | 133.185 |
| O=C(CN1C(=O)c2ccc([N+](=O)[O-])cc2C1=O)Nc1ccc(O)cc1C(=O)O [CBK263456] | 106.678 |
| COC(=O)c1ccc(F)c(NC(=O)C2CCCC2)c1 [CBK296640] | 87.963 |
| CN(C)CC1CCCN(C(=O)c2cc3cc(Cl)ccc3n2C)C1 (stereo not drawn) [CBK282121] | 96.2055 |
| CC(=O)Nc1ccccc1NC(=O)CCCN1C(=O)CCC1=O [CBK267681] | 93.0984 |
| O=C(CCN1CCN(CCO)CC1)Nc1ccc(F)c(F)c1 [CBK264316] | 106.181 |
| O=C(COc1ccc(-c2ccccc2)cc1)N/N=C/c1ccncc1 [CBK262210] | 102.47 |
| Cn1c(SCC(=O)Nc2c(F)cc(F)cc2Br)nnc1-c1cnccn1 [CBK267584] | 104.862 |
| O=C1c2ccccc2C(=O)N1CCc1c[nH]c2ccc(O)cc12 [CBK086794] | 101.1 |
| Cc1nn(Cc2nnn(CC(=O)O)n2)c(C)c1Br [CBK009457] | 62.0485 |
| COCCOc1ccc(C(=O)N[C@@H]2CNCCC[C@H]2O)cc1 [CBK289071] | 107.316 |
| CN(CC(=O)N1CCCCC1)S(=O)(=O)c1cc(Cl)ccc1Cl [CBK091826] | 52.4813 |
| O=C(O)c1cccc(NC(=O)C2CCCCC2C(=O)O)c1 (stereo not drawn) [CBK261538] | 103.754 |
| CC(C)(O)C#Cc1ccc(C(=O)NC(CSCc2ccccc2)C(=O)O)s1 (stereo not drawn) [CBK267705] | 111.983 |
| CCN1CCN(C(=O)C2CCN(S(=O)(=O)c3ccc(Br)cc3)CC2)CC1 [CBK266881] | 103.9 |
| CCNC(=O)N1C(CC(=O)OCC)C(=O)NC2CCCCC21 (stereo not drawn) [CBK268030] | 98.0526 |
